Measured values reported in PubChem BioAssay AID1508624 (National Center for Advancing Translational Sciences (NCATS), 2021).
In all, about 48,000 compounds went through this assay and about 120 (0.25%) were called active. Inconclusive results (about 4%) are left out. Calls follow the shape of the dose curve; as a rule, active = well fitted activation curve with a large enough effect; inconclusive = small, poorly fitted or top-dose-only effect, or another doubt; inactive = no such curve, though single readings can be large or run the other way. This is one part of the list.

experiment: Primary qHTS for Identification of Small Molecule Activators of Huntingtin-Antisense Promoter Activity; conditions: HEK293 HTT-AS promoter firefly luciferase reporter, 24 h; series mostly up to 57.5 µM; activity change, positive = activation: at the top concentration; also: nearly all actives have a fitted effect of over 55% in size
Procedure, shortened: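 Quantitative HTS used concentration series of up to 57.5 uM final on HEK293 luciferase reporter cells, 24 h at 37 degrees C. Readout was Dual-Glo firefly luminescence.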
Potency is read from the fitted curve at half-maximal effect.

Activity change, positive = activation, inactive:
CCOc1ccc(CNC(=O)C2CCN(S(=O)(=O)N3CCCCC3)CC2)cc1 -20.4%
COc1cccc(C(=O)Nc2cc(-c3cn4cccnc4n3)ccc2C)c1OC -5.26%
CCOc1ccc(NC(=O)c2sc3nc4c(cc3c2N)CCCCCC4)cc1 -29.4%
Cc1ccc(OCC(=O)Nc2ccccc2C(=O)OCc2cc(=O)n3nc(C4CC4)sc3n2)cc1 11.3%
O=C(c1cccs1)N(Cc1cccnc1)c1nc2ccc(F)cc2s1 -18.9%
CC1CCN(C(=O)c2c(NC(=O)c3ccccc3F)sc3c2CCC(C(C)(C)C)C3)CC1 (centres undefined) -5.1%
Cc1nc2ccccn2c(=O)c1NC(=O)c1c(F)cccc1F -7.08%
CCOc1cc(C2C(C(=O)OC)=C(C)NC3=C2C(=O)c2ccccc23)c(Br)cc1OC (centres undefined) -33.5%
Cc1cn2cc(C(=O)N(C)CCO)cc(N[C@@H]3CCOc4cccc(C)c43)c2n1 -20.5%
CCOCCCNC(=O)Cn1nc(C)n2c(cc3cc(C)ccc32)c1=O 19.6%
Cc1coc2c1C(=O)C(=O)c1c-2ccc2c1CCCC2(C)C 5.09%
CCCCN(CCCNC(=O)CN1N=C(c2ccccc2)CCC1=O)c1ccccc1 -30.3%
O=C(COc1ccccc1Cl)Nc1nc2c(s1)CCCC2 24.1%
CCCCSc1nnc2n(-c3cccc(C)c3)c(=O)c3c4c(sc3n12)CCCC4 0%
Clc1ccc(-c2csc(=Nc3ccccc3)n2Cc2ccc3c(c2)OCO3)cc1 9.26%
Cc1ccc2nc(COc3ccc(NC(=O)COc4ccccc4F)cc3)cc(=O)n2c1 0.399%
Cc1cccc(OCc2nc(C#N)c(NCc3ccccc3Cl)o2)c1 21.1%
CCOC(=O)C1CCN(C(=O)CSc2n[nH]c(-c3ccccc3)n2)CC1 -5.16%
COc1ccc(NC(=O)CSc2nc3ccccc3[nH]2)cc1 4.97%
Cc1ccc(C)c(N2CCN(C(=O)Cn3c(=O)c4cccn4c4ccc(F)cc43)CC2)c1 -2.25%
Cc1ccc(NC(=O)CSCn2nnc3c(=O)[nH]c(Cc4ccc(F)cc4)nc32)c(C)c1 -3.19%
COc1cc2c(=O)c(C(=O)c3ccc(C)c(C)c3)cn(Cc3ccccc3)c2cc1OC -15.2%
COc1ccc(-c2cc3nc(C)c(CCC(=O)N4CCN(c5ccccc5)CC4)c(C)n3n2)c(OC)c1 -11.7%
Cc1cc(C)c2nc(NC(=O)c3ccc(S(=O)(=O)N4CCCC4)cc3)sc2c1 -27.2%
O=C(Oc1ccccc1)c1ccccc1O -5.04%
CCn1c(=O)c2cc(C(=O)Nc3cccc(C(F)(F)F)c3)sc2c2ccccc21 2.73%
COc1ccc(C(=O)Nc2ccc(-c3nc4ncccc4o3)cc2C)cc1Br -11.2%
CCNC(=O)CCCN1C(=O)CCn2nc(-c3cccn3C)cc21 -7.23%
O=S(=O)(c1ccc(C2CCCCC2)cc1)N1CCN(c2cc(Cl)ccc2Cl)CC1 -7.03%
COc1ccc(-n2c(/C=C/c3cccc4ccccc34)nc3ccccc3c2=O)cc1OC -15.9%
CCC(Sc1nc2nccnc2c(=O)n1Cc1ccccc1Cl)C(=O)NC1CCCCC1 (centres undefined) -18%
Cc1ccc2nc(NCc3ccccc3)c3nncn3c2c1 -9.19%
CCn1cc(C(=O)NCCc2ccc(Cl)cc2)c(=O)c2cc(S(=O)(=O)N(C)C3CCCCC3)ccc21 -8.37%
Fc1ccc(CNCCCSc2nnnn2-c2ccccc2)cc1 -15.6%
COc1ccc(NC(=O)CSCc2cc(=O)c3cc(C)ccc3[nH]2)cc1 -16.9%
COc1ccc(Cn2c(C(=O)O)c(CNCc3ccc(OC)cc3OC)c3ccc(C)cc32)cc1 -15.6%
COc1ccc(CCCc2nnc(SCC(=O)Nc3cc(F)ccc3C)o2)cc1 17.5% [at 11.5 µM, percent change from vehicle, -100% = no light]
CC(=O)OCC(=O)[C@@]1(O)[C@H](C)C[C@H]2[C@@H]3CCC4=CC(=O)C=C[C@]4(C)[C@@]3(F)[C@@H](O)C[C@@]21C -6.78%
COc1cccc2cc(-c3nc(C4CCC(C(=O)O)CC4)n4ncnc(N)c34)[nH]c12 (centres undefined) -23.2%
COc1ncnc(NS(=O)(=O)c2ccc(N)cc2)c1OC
CCOc1ccc(CNC(=O)c2ccc3c(Cl)c4c(nc3c2)CCCC4)cc1 -7.99%
CN(C(=O)CSc1nc2ccc(NC(=O)c3cccc(F)c3)cc2s1)c1ccccc1 -58.4%
CCOC(=O)c1c(NC(C)=O)c2c3c(sc2n1Cc1c(C)cc(C)cc1C)CCCC3 -20.4%
CCOc1ccc(N(CC(=O)NCc2ccc(OC)cc2)S(=O)(=O)c2c(C)[nH]c(=O)[nH]c2=O)cc1 8% [at 11.5 µM, percent change from vehicle, -100% = no light]
COc1cccc(C(=O)N(Cc2cccc(F)c2)C2CCS(=O)(=O)C2)c1 (centres undefined) -9.74%
Cc1ccc2c(c1)N(CC(=O)Nc1ccccc1C(F)(F)F)C(=O)c1cccnc1O2 -25.1%
Cc1c(Cl)cccc1NC(=O)c1oc2ccc(S(=O)(=O)N3CCCCCC3)cc2c1C 3.18%
CCOC(=O)c1cc2c(=O)n3ccccc3nc2n(Cc2ccco2)c1=NC(=O)c1ccc(C(C)(C)C)cc1 -2.18%
O=C(Nc1cccc(F)c1)c1ccc2oc(=O)n(Cc3ccccc3)c2c1 -37.2%
COc1cccc(OC)c1C(=O)Nc1ccc(-c2nc3ncccc3o2)cc1 -3.19%
Cc1cccc(N(CC(=O)NCCc2ccccc2)S(=O)(=O)c2ccccc2)c1C 26.2% [at 11.5 µM, percent change from vehicle, -100% = no light]
Cc1ccc(-c2csc(-c3c(N)c(C(=O)c4ccc5c(c4)OCO5)n4ccccc34)n2)cc1C 4.05%
COc1ccc(CCNC(=O)c2cc3c(=O)n4cccc(C)c4nc3n2C)cc1 -3.9%
CCC(CC)C(=O)Nc1nnc(S(=O)(=O)N(C)c2cc(C)cc(C)c2)s1 -36.8%
COc1ccc(C(=O)c2ccccc2)c(O)c1 12.7%
COc1ccc(NC(=O)CC2Oc3ccc(C)cc3NC2=O)cc1Cl (centres undefined) -26.6%
COc1c(N2C[C@@H]3CCCN[C@@H]3C2)c(F)cc2c(=O)c(C(=O)O)cn(C3CC3)c12 -5.9%
Cc1cc(C)cc(-n2ccn(CC(=O)NCCc3ccccc3)c(=O)c2=O)c1 -1.54%
COc1cc2c(cc1OC)C(COc1ccc3c(C)cc(=O)oc3c1)N(C(=O)Cc1ccc(F)cc1)CC2 (centres undefined) 0%
Fc1ccccc1Nc1c2c(nc3ccccc13)CCC2 -40.4%
COc1cccc2cc(C(=O)N3CCN(c4cc(C)ccc4C)CC3)c(=O)oc12 -20.2%
Cc1nc(SCC(=O)N2CCN(c3ccccc3)CC2)[nH]c(=O)c1C -7.58%
CCc1ccccc1NC(=O)CN(C)S(=O)(=O)c1cccc2nsnc12 4.87%
CCN(CC)c1ccc(NC(=O)c2c(C)nn(-c3ccc(F)cc3)c2-n2cccc2)c(C)c1 -31.5%
COc1ccc(OC)c(NC(=O)c2c(NCc3cccs3)sc3c2CCCCC3)c1 -20.2%
COc1ccc(-c2ccc(NS(=O)(=O)c3ccc(NC(C)=O)cc3)cc2)nn1 16.9%
COc1cccc(CN(C(=O)COc2ccc(Cl)c(C)c2)C2CCS(=O)(=O)C2)c1 (centres undefined) -18%
COc1ccc(C(=O)CC(=O)c2ccc(C(C)(C)C)cc2)cc1
Cc1ccc(C2CC(=O)n3nc(-c4ccc(Cl)cc4)nc3S2)cc1 (centres undefined) -3.26%
Cc1ccc(Sc2ccc(N3CCC(C(=O)Nc4cc(C)cc(C)c4)CC3)nn2)cc1 -12.1%
Cc1c(Cl)cccc1-n1ncc(C(=O)NCCN2CCN(C)CC2)c1C1CCN(C(=O)OC(C)(C)C)CC1 11%
O=C(Cn1c(=O)n(-c2ccccc2)c(=O)c2c3c(sc21)CCC3)c1ccc(F)cc1 -21.6%
O=C(NCc1ccccc1)c1ccc2c(c1)N(Cc1ccccc1F)C(=O)c1ccccc1S2=O (centres undefined) -29.7%
Cc1ccc(CNC(=O)CCS(=O)(=O)c2cc3c4c(c2)CCN4C(=O)CC3)cc1 -2.56%
CCc1ccc(NC(=O)CSc2nc3c([nH]c4ccccc43)c(=O)n2-c2ccc(C)cc2)cc1 -36.5%
Cc1ccccc1C(=O)c1ccc(Nc2ccc(Br)cc2N)cc1Cl -16.7%
O=C(Nc1ccc(Cl)cc1)c1cnn2c1NC(c1ccccc1)=CC2c1ccccc1 (centres undefined) -50%
CCN(CC)c1cc(C)c2cc(NC(=O)c3ccc(OC)c(OC)c3)ccc2n1 -19.6%
CCOC(=O)c1scc(-c2ccccc2)c1S(=O)(=O)N1CCN(c2ccc(Cl)cc2)CC1 -18.8%
Cc1ccc(NC(=O)c2ccc(NC(=O)N3CCSc4ncccc43)cc2)c(Cl)c1 -31.7%
COc1ccccc1C(=O)Nc1c(C(=O)Nc2cc(Cl)ccc2C)sc2nc(C)cc(C)c12 -10.8%
COc1cccc(N2CCN(C(=O)c3cnc4c(-c5ccccc5)c(C)nn4c3C)CC2)c1 -14.3%
Cc1ccccc1NC(=O)NCCc1c[nH]c2ccccc12 -18.4%
COc1ccc(-c2cc(C)no2)cc1S(=O)(=O)N1CCN(c2cccc(C)c2)C(C)C1 (centres undefined) -56.7%
O=C(Nc1ccccc1)c1cnc(N2CCCCC2)c2ccccc12 -39.4%
Cc1cc(C)cc(OCC(=O)Nc2nc(-c3ccc(F)cc3)ns2)c1 1.26%
Cc1ccccc1NC(=O)CSc1c(C(C)C)cnc2c1c(=O)n(C)c(=O)n2C -18%
COC(=O)c1cc(NS(=O)(=O)c2ccc3c(c2)OCCO3)ccc1Cl -35.8%
CCOc1ccccc1NC(=O)CSc1nc2ccccc2nc1N1CCOCC1 -12.2%
CCc1ccc(NC(=O)CSc2nc3nc(C)cc(C)n3n2)cc1 -15.9%
COc1ccc(-c2noc(N3CCC(C(=O)Nc4cccc(C)c4C)CC3)n2)cc1 -59%
COc1ccc(CCNC(=O)c2ccc3c(c2)CCN3S(=O)(=O)c2ccccc2)cc1 -22%
CCOc1cc(CNC(=O)c2cc(-c3ccccc3)n[nH]2)cc(OCC)c1OCC -9.96%

Potency, active:
Cc1cc(F)ccc1NC(=O)c1csc2c1CCC(C)C2 (centres undefined) 3.16 µM
